Source: PubChem BioAssay AID1346428 (National Center for Advancing Translational Sciences (NCATS), 2018)
Several values for one entry are separate records, joined by “and”; a condition that tells them apart may be missing. Equal values may be shown once. Among all 48,000 compounds or so, about 1,200 (2.5%) were called active. About 2% were inconclusive and are not listed.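 Rule for the calls: active = activation of at least 60% and not above a set upper limit (about 1 call in 100 departs from these limits); inconclusive = activation of 40% to 60%, or above that upper limit; inactive = activation under 40%.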 Some of the results follow.

Each molecule was assayed against Probable G-protein coupled receptor 32 (Homo sapiens) (UniProt O75388) (assay: qHTS for Agonists of Human Resolvin D1 Receptor DRV1). Details: CHO-K1 GPR32 beta-arrestin PathHunter luminescence, 90 min; at 76.9 µM; hits give high values; zero percent set by DMSO-only wells.
In short: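 Agonism was scored as beta-arrestin recruitment to ProLink-fused GPR32 in stably transfected CHO-K1 cells, giving a chemiluminescent beta-Gal signal; compounds were incubated 90 min at 37 °C.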
Note: 0% is about no effect.

Chain of UniProt O75388 (O75388 whole entry, looked up, the tested form may be a part): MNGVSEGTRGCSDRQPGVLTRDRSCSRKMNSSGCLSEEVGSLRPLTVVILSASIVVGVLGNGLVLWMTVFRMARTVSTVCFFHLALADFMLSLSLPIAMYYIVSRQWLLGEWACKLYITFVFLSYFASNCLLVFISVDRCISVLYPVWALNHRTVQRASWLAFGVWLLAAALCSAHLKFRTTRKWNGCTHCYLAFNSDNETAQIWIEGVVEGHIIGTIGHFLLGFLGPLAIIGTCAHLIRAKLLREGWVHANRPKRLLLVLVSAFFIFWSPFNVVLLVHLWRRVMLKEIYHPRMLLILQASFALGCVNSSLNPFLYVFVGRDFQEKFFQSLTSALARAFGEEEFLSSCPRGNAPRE

Row | Structure (SMILES) | activation
1 | COc1ccc(C2=C(Nc3ccc(C)c(C)c3)c3ccccc3C2=O)cc1 | inactive: -11.5%
2 | CCOc1ccc(C(=O)Nc2cc(-c3nc4ccccc4s3)ccc2OC)cc1 | inactive: -5.6%
3 | COc1ccccc1N1CCN(C(=O)c2cc(-c3ccccc3O)on2)CC1 | inactive: 12.2%
4 | Nc1ccc2cc3ccc(N)cc3nc2c1 | inactive: 32.4%
5 | N#Cc1cccc(NC(=O)c2cc3c(s2)-c2ccc(Cl)cc2SC3)c1 | inactive: -15%
6 | Cc1nc(-c2ccc(S(=O)(=O)Nc3ccc(C)c(N(C)C)c3)cc2)co1 | inactive: 43.7%
7 | COc1ccc(CCNC(=O)c2ccc3c(c2)N(Cc2ccc(F)cc2)CCS3)cc1OC | inactive: -17.3%
8 | CCc1nn(CC(=O)NCc2ccccc2Cl)c(=O)c2cccn12 | inactive: -14.9%
9 | O=C(COc1ccccc1[N+](=O)[O-])Nc1ccc(-c2nc3ccccc3s2)cc1 | inactive: 4.65%
10 | Cc1cc(C)cc(NC(=O)c2cccc3c2C(=O)N(C2CCCCC2)C3)c1 | inactive: 1.23%
11 | COc1ccc(S(=O)(=O)c2cc(NS(=O)(=O)c3ccc(Cl)cc3)c(C)c(C)c2O)cc1 | inactive: 23.6%
12 | COc1ccc(NC(=O)c2cnc[nH]2)cc1 | inactive: 8.68%
13 | Cc1nc(SCC(=O)Nc2ccccc2F)[nH]c(=O)c1Cc1ccccc1 | inactive: -9.47%
14 | O=S(=O)(c1ccccc1)c1nc(-c2cccs2)oc1SCc1ccc(F)cc1 | inactive: -17.4%
15 | COc1ccccc1-n1c(-c2ccc(C)cc2)cn2c3c(=O)n(C)c(=O)n(C)c3nc12 | inactive: 7.36%
16 | CCC(Sc1nc2ccccc2c2nc(-c3ccccc3)nn12)C(=O)Nc1cccc(OC)c1 (stereo unspecified) | inactive: -11.7%
17 | Cc1c(Cl)cccc1NC(=O)CCN1C(=O)c2ccccc2Sc2ncccc21 | inactive: -9.57%
18 | Cc1ccc2oc(=O)c3cnn(CC(=O)N4CCN(c5ccccc5)CC4)c3c2c1 | inactive: 7.46%
19 | COC(=O)c1c(NC(=O)CS(=O)(=O)c2ccc(C)cc2)sc2c1CCCC2 | inactive: -19.3%
20 | CCC(C)NC(=O)CSc1nc2n[nH]c(C)c2c(=N)n1-c1ccc(C)c(Cl)c1 (stereo unspecified) | inactive: -10.8%
21 | CC(C)(C)c1onc(OCP(=O)(O)O)c1CC(N)C(=O)O (stereo unspecified) | inactive: -1.3% and inactive: 3.96%
22 | CCN(CC)C(=O)c1cc(-c2ccc(Cl)cc2)on1 | inactive: 21.2%

Row | Structure (SMILES) | activation
23 | CCN(C(=O)Cn1nnc2sc(-c3ccccc3)cc2c1=O)c1cccc(C)c1 | inactive: -2.89%
24 | Cc1cc(NC(=O)CCNS(=O)(=O)c2ccc3c(c2)oc(=O)n3C)ccc1Br | inactive: 11.7%
25 | O=C(Nc1cccc(Cl)c1)c1ccc(F)c(S(=O)(=O)N2CCC3(CC2)OCCO3)c1 | inactive: 1.14%
26 | O=C(Nc1ccc(F)cc1F)c1cc2nc(-c3ccco3)cc(C(F)(F)Cl)n2n1 | inactive: 6.83%
27 | COc1ccc(NC(=O)CCn2c(=O)c3cccn3c3ccccc32)c(OC)c1 | inactive: -22.8%
28 | CCC1CN(C(=O)Nc2cccc3c2CCCC3)c2ccccc2O1 (stereo unspecified) | inactive: -28.8%
29 | COC(=O)c1cnn2c(C)c(Cc3c(C)cc(C)cc3C)c(C)nc12 | inactive: -2.18%
30 | Cc1ccc(CNC(=O)CN(c2ccc(C)cc2)S(=O)(=O)c2c(C)nn(C)c2C)cc1 | inactive: -1.67%
31 | CCN(CC)S(=O)(=O)c1ccc2c(c1)c(=O)c(C(=O)N1CCN(c3cccc(C)c3)C(C)C1)cn2C (stereo unspecified) | inactive: 5.14%
32 | Cc1ccc2c(=O)cc(C(=O)Nc3ccc(S(=O)(=O)N(C)Cc4ccccc4)cc3)oc2c1 | inactive: 1.05%
33 | CCCCn1c(C(C)NC(=O)c2ccccc2)nc2ccccc21 (stereo unspecified) | inactive: -1.08%
34 | CC(=O)c1ccc(NC(=O)CN(C)S(=O)(=O)c2cccc3nsnc23)cc1 | inactive: 5.59%
35 | COc1ccccc1-c1cc2nc(C)c(CCC(=O)NCc3cccc(Cl)c3)c(C)n2n1 | inactive: 1.19%
36 | COc1ccc(N2CC(NC(=O)C3CC3)CC2=O)cc1OC (stereo unspecified) | inactive: 2.64%
37 | CCOC(=O)C1CCCN(CCC(=O)Nc2cccc(C)c2)C1 (stereo unspecified) | inactive: -1.52%
38 | O=C(Nc1ccc(Cl)cc1)N1CCN(c2ccc3nnc(-c4ccccc4)n3n2)CC1 | inactive: 18.5%
39 | CN(C)C(=O)Nc1ccc(Cl)c(Cl)c1 | inactive: 6.32%
40 | CCOc1ccc(NC(=O)c2cc3c(=O)n(Cc4cccs4)ccc3nc2C)cc1 | inactive: -14.1%
41 | Cn1c(=O)c2c(c3ccccc31)OC(=O)CC2c1cccc(F)c1 (stereo unspecified) | inactive: 4.11%
42 | O=C(C1CCC(Cn2c(=O)c3sccc3n(Cc3ccccc3F)c2=O)CC1)N1CCCCC1 (stereo unspecified) | inactive: 16.3%
43 | COc1ccccc1N(CC(=O)NCCSCc1cccc(Cl)c1)S(C)(=O)=O | active: 87.7%
44 | CCCCNC(=O)C1CCN(S(=O)(=O)c2ccc3c(ccn3CC)c2)CC1 | inactive: 4.59%

Row | Structure (SMILES) | activation
45 | Cc1cc(C)c(NC(=O)c2ncoc2-c2ccco2)c(C)c1 | inactive: 0.0313%
46 | CC(=O)N1C[C@H](O)C[C@H]1C(=O)O | inactive: -5.13%
47 | CC(C)NC(=O)C1CCN(C(=O)c2cc3sccc3n2Cc2ccc(Cl)cc2)CC1 | inactive: 8.25%
48 | COc1ccc2c(CNC3CCCCCC3)c(C(=O)O)n(Cc3cccc(F)c3)c2c1 | inactive: -7.58%
49 | O=S(=O)(NCCc1csc2nc(-c3ccccc3)nn12)c1ccc(Cl)s1 | inactive: 11.7%
50 | Cc1cc(C)cc(NC(=O)CSc2nnc(-c3cc4occc4n3C)n2-c2ccccc2C)c1 | inactive: -13.3%
51 | CCN(CC)CCSc1nnc2c3cc(F)ccc3n(C)c2n1 | inactive: 6.43%
52 | O=S(=O)(O)c1ccc2nc(-c3ccccc3)[nH]c2c1 | inactive: -25.1%
53 | CC(NC(CCc1ccccc1)C(=O)O)C(=O)N1C(=O)N(C)CC1C(=O)O (stereo unspecified) | inactive: -23.4%
54 | CCOC(=O)c1c(C)[nH]c(CCC(=O)Nc2ccc(Cl)cc2C)c1C | inactive: -11.4%
55 | Cc1ccc(CNCc2c(C(=O)O)n(Cc3ccc(C)cc3)c3cc(C)ccc23)cc1 | active: 98.3%
56 | COC(=O)c1ccc(OC)c(CN2C(=O)N(c3ccc(C(C)=O)cc3)S(=O)(=O)c3ccccc32)c1 | inactive: -7.47%
57 | Cc1ccc(-c2noc(CN(C(=O)COc3cc(C)cc(C)c3C)C(C)C)n2)cc1 | inactive: -5.5%
58 | COc1ccc(-c2noc(CNS(=O)(=O)c3ccc(Br)cc3)n2)cc1OC | inactive: -8.22%
59 | COC(=O)c1ccc(NC(=O)CN2C(=O)c3cccc4cccc2c34)cc1 | inactive: 4.5%
60 | Cc1ccc(NC(c2ccc(Cl)cc2)c2nnc(-c3cccc(F)c3)o2)cc1C (stereo unspecified) | inactive: -10%
61 | COc1ccc(-c2cn3nc(SCC(=O)Nc4ccc(C)c(Cl)c4)ccc3n2)cc1 | inactive: -10.7%
62 | COC(=O)CCNC(=O)N1CCN(c2nnc(C)c3c(C)n(-c4ccc(Cl)cc4)nc23)CC1 | inactive: -3.15%
63 | COc1ccc(OC)c(CCNC(=O)c2c3c(nc4ccccc24)C(=O)N(C2CCCCC2)C3)c1 | inactive: -19%
64 | CCN(CCCNC(=O)c1cc(Nc2ccccc2OC)nc2ccccc12)c1cccc(C)c1 | inactive: -5.53%
65 | Cc1cc(C)c(NC(=O)COc2ccc3c(C)cc(=O)oc3c2)c(C)c1 | inactive: 13.6%
66 | O=C(CSc1nc2c([nH]c3ccccc32)c(=O)n1-c1ccc(Cl)cc1)N1CCCC1 | inactive: -2.01%

Row | Structure (SMILES) | activation
67 | CCOC(=O)Cn1c(=O)oc2cc(S(=O)(=O)N3CCN(c4ccc(C(C)=O)cc4)CC3)ccc21 | inactive: -0.311%
68 | CCOc1ccc(S(=O)(=O)c2cn(Cc3cc(C)ccc3C)c3ccc(OCC)cc3c2=O)cc1 | inactive: -13.3%
69 | COc1ccc(NC(=O)Cn2nc(C)c3nn(-c4ccc(Cl)cc4)c(C)c3c2=O)cc1 | inactive: -41.5%
70 | COc1cccc(Nc2nc3cc(Cl)c(Cl)cc3nc2-n2nc(C)cc2C)c1 | inactive: 8.22%
71 | CC1CCN(c2oc(/C=C/c3ccc(F)cc3)nc2C#N)CC1 | inactive: -14.7%
72 | CCOc1ccc(NC(=O)c2cc(S(=O)(=O)N3CCOCC3)ccc2F)cc1 | inactive: 0.469%
73 | CCCOC(=O)c1ccc(Cn2nnc3sc4c(c3c2=O)CCC(C)C4)cc1 (stereo unspecified) | inactive: -12.4%
74 | COc1ccccc1CNC(=O)c1cnc(N2CCCC2)nc1C | inactive: -4.84%
75 | COc1ccc(CCNC(=O)CCn2c(=O)c3ccccc3n(CC(=O)Nc3ccc(C)cc3C)c2=O)cc1OC | inactive: -0.508%
76 | O=C(Nc1ccccc1)C1CCN(S(=O)(=O)c2ccc3[nH]c4c(c3c2)CCCCC4)CC1 | inactive: 5.52%
77 | COc1ccccc1NC(=O)C1=C(C)Nc2nc(SCc3ccccc3)nn2C1c1cccnc1 (stereo unspecified) | inactive: -6.69%
78 | CCc1c(C)sc2c1CCN(C(=O)Nc1ccc(F)c(Cl)c1)C2c1ccc(F)cc1 (stereo unspecified) | inactive: 26.4%
79 | CCOc1ccc(-c2nc(Cn3c(=O)cc(C)c4c(C)nn(-c5ccc(C)cc5)c43)c(C)o2)cc1 | inactive: 25.3%
80 | Cc1cc(C)cc(NC(=O)Cn2nnc(-c3nc(-c4ccncc4)no3)c2N)c1 | inactive: -1.05%
81 | O=C(O)C1=CCCNC1 | inactive: 5.55%
82 | Cc1ccc(N2CCN(S(=O)(=O)c3ccc(F)c(C(=O)Nc4ccc(Cl)cc4Cl)c3)CC2C)cc1 (stereo unspecified) | inactive: -20.6%
83 | Cc1cc2c(cc3c(SCc4nc(-c5ccccc5)oc4C)nnc(C)n32)o1 | inactive: -26.6%
84 | CCn1ccc2c(OCC(=O)Nc3ccccc3C)cccc2c1=O | inactive: 44.7%
85 | CCOC(=O)c1ccc(NC(=O)Nc2cc3c(cc2N2CCCC2)n(C)c(=O)n3C)cc1 | inactive: -10%
86 | COc1ccc(N2CCN(C(=O)c3cccc(NC(=O)c4nsc5ccccc45)c3)CC2)cc1 | inactive: 1.26%
